Out of some 310,000 compounds screened, about 2,200 (0.71%) showed an effect of 50% or more. The effect is printed as a negative number. This is one part of the list.
target: human ether-à-go-go-related gene (hERG) potassium channel (human, UniProt Q12809); assay: primary screen, population patch clamp on CHO cells stably expressing hERG
Sequence (Q12809 whole entry, looked up): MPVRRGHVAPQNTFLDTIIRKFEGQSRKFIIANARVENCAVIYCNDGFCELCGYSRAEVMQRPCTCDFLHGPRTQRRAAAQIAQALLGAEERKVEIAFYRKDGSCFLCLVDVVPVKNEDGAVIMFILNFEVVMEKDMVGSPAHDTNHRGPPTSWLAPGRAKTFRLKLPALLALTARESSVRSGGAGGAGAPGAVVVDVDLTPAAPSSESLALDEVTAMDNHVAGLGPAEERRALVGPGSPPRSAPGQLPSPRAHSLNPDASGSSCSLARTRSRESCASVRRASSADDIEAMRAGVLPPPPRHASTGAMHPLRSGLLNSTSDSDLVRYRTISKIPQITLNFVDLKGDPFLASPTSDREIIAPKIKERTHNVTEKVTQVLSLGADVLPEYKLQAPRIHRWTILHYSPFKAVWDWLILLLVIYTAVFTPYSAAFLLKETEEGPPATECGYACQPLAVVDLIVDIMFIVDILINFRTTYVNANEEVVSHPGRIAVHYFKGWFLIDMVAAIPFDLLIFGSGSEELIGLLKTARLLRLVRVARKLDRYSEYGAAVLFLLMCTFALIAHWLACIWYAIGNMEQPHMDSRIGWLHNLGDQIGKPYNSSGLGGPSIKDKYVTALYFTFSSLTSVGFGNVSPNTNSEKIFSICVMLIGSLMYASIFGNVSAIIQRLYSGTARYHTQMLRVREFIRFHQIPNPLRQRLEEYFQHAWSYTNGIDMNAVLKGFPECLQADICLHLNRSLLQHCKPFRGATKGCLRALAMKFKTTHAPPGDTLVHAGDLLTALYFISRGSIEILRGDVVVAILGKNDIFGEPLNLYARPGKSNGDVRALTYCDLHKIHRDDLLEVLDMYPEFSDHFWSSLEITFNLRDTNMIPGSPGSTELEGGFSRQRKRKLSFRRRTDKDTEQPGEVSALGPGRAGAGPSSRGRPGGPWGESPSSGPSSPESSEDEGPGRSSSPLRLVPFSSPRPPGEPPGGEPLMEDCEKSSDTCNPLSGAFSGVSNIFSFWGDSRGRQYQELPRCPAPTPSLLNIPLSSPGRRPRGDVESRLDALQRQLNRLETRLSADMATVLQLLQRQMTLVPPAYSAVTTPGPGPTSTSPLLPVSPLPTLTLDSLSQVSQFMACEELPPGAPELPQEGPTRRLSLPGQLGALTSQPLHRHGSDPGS

| Structure (SMILES) | hERG current change (%, negative = inhibition) at 1uM [%] |
| --- | --- |
| NC(=O)c1ccc(NC(=O)CN2CCN(Cc3ccccc3)CC2)cc1 | 9.17 |
| CCOC(=O)C1=C(Nc2ccc(C)cc2)CC(C)(O)C(C(=O)OCC)C1c1ccccc1 (stereo not shown) | 12.7 |
| O=[N+]([O-])c1ccc(CNc2cccc(F)c2)s1 | 3.19 |
| O=C(N/C(=C\c1cn(-c2ccccc2)nc1-c1ccccc1)C(=O)N1CCOCC1)c1ccccc1 | 20 |
| O=C1CCCC2=C1C(c1ccccc1)NC(=S)N2 (stereo not shown) | 13.8 |
| CCN(CC)CCn1c(=N)n(CCO)c2ccccc21 | 9.88 |
| CCCOc1ccc(-c2c(=O)n(OCC(=O)OCC)c3ccccc3[n+]2[O-])cc1 | 12.3 |
| c1ccc(-c2nc(CSc3nnc(-c4cccs4)o3)cs2)cc1 | 7.66 |
| Cc1ccccc1OCCCCn1cnc2ccccc21 | 0.343 |
| Nn1c(SCc2ccc(F)cc2)nnc1-c1ccncc1 | 9.04 |
| Cc1cccc(S(=O)(=O)Nc2ccc(-n3c(C)nc4ccccc4c3=O)cc2)c1 | -11.9 |
| CSCCC(NS(=O)(=O)c1ccccc1F)C(=O)OCc1ccccc1Cl (stereo not shown) | -0.748 |
| Cc1ccc2c(c1)c1nnc(SCC(=O)N3CCCc4ccccc43)nc1n2CC(=O)O | 4.27 |
| CC[C@@H](NS(=O)(=O)c1ccc(C)cc1)C(=O)Oc1ccc2c3c(c(=O)oc2c1)CCC3 | 11.7 |
| CC(Cc1cccs1)N(Cc1ccc(Cl)cc1)C(=O)c1ccncc1 (stereo not shown) | 7.5 |
| Cc1ccc(/C=N/NC(=O)c2cccc(NC(=O)c3ccccc3Cl)c2)o1 | 4.53 |
| CCOC(=O)C(=O)/C(=C\N(C)C)c1onc(-c2c(Cl)cccc2Cl)c1C(=O)OC | 8.35 |
| Cc1ccc(NC(=O)C(=O)NCC2CCN(C(=O)c3cccc([N+](=O)[O-])c3)CC2)cc1 | 1.35 |
| Cc1sc2nc(CSCC(=O)NC(C)(C)C)[nH]c(=O)c2c1C | 12.1 |
| O=c1oc2ccccc2cc1-c1nnc(NCc2ccco2)s1 | -3.01 |
| COc1ccc(-n2nnnc2SCC(=O)Nc2cccc(O)c2)cc1 | 7.05 |

| Structure (SMILES) | hERG current change (%, negative = inhibition) at 1uM [%] |
| --- | --- |
| CC(C)c1ccc(NC(=O)Cn2nnc(C(=O)NCc3ccco3)c2N)cc1 | 17.7 |
| C=C(C)CNC(=O)c1ccc2nc(Cc3ccc(OC)cc3)oc2c1 | 16.4 |
| O=S(=O)(Nc1nc2ccccc2nc1NCC1CCCO1)c1ccc(F)cc1 (stereo not shown) | 4.29 |
| CN(C(=O)C1CC1)C1CCS(=O)(=O)C1 (stereo not shown) | 13.2 |
| CC(=O)c1cccc(NC(=O)CN2CCc3cc4c(cc3C2C)OCCCO4)c1 (stereo not shown) | 7.6 |
| CCCn1c(=O)c(C(=O)Nc2ncccc2O)c(O)c2ccccc21 | 9.76 |
| COc1ccc(/C=N/OCC(=O)N2CC3(C)CC2CC(C)(C)C3)cc1 (stereo not shown) | -15.8 |
| CCc1nc2ccc(C(=O)N3CCN(c4cccc(Cl)c4)CC3)cc2nc1CC | 7.35 |
| CC(=O)c1ccccc1C(=O)N(C)C1CCCN(Cc2ccccc2F)C1 (stereo not shown) | 16.1 |
| C[C@H](NC(=O)c1[nH]cnc1C(=O)Nc1ccccc1)c1ccccc1 | 9.95 |
| Cc1ccc(N2C(=O)c3ccccc3C2=O)cc1 | 12.3 |
| COc1ccccc1NC(=O)C(=O)N/N=C(\C)CC(=O)Nc1ccccn1 | 11 |
| CCN(CC)CCOC(=O)C1(c2ccc([N+](=O)[O-])cc2)CCCC1.Cl | -8.01 |
| CCCC(=O)NC(=S)Nc1sc2c(c1C(N)=O)CCC2 | 11.1 |
| COc1ccccc1N(CC(=O)Nc1ccc(S(=O)(=O)N2CCOCC2)cc1)S(C)(=O)=O | 14.4 |
| COc1cccc(CNC(=O)CN(C)S(=O)(=O)c2ccc3c(c2)CC(C)N3C(C)=O)c1 (stereo not shown) | 10.9 |
| CC(C)C1Cc2c(sc3c2c(=O)n(Cc2ccccc2)c2nncn32)CO1 (stereo not shown) | -8.12 |
| COc1cc(C2C(C(=O)c3cccs3)=C(O)C(=O)N2CCN2CCOCC2)cc(OC)c1OC (stereo not shown) | 7.57 |
| O=C1NC2(CCCCC2)N=C1c1ccc(F)cc1 | 2.53 |
| CCC(=NC1CCN(Cc2ccccc2)CC1)c1c(O)[nH]c(=O)[nH]c1=O | -7.6 |
| O=C(O)c1ccc(N2CCCCC2)cc1 | 8.62 |

| Structure (SMILES) | hERG current change (%, negative = inhibition) at 1uM [%] |
| --- | --- |
| COC(=O)Nc1nnc(-c2ccccc2Cl)s1 | 15 |
| N#Cc1cnc2nc(SCc3ccccc3)nn2c1 | 9.5 |
| Cc1cc(C(=O)Cn2c(CO)nc3ccccc32)c(C)n1C | 9.28 |
| O=C(Nc1ccccc1)N1CCc2scc[n+]2-c2ccccc21.[Br-] | 14.5 |
| CCCC(=O)Nc1ccc(Cl)c(NC(=O)CC)c1 | 6.91 |
| COc1cccc2c1cc1c(=O)n(CC(=O)NCc3ccccn3)nc(C)n12 | 11 |
| COC(=O)c1ccc(C2Nc3cccc4cccc(c34)N2)cc1 | 7.65 |
| CC(C)N(C(=O)c1ccc2nc(-c3ccccc3)c(-c3ccccc3)nc2c1)C(C)C | 9.62 |
| CCc1nnc(NS(=O)(=O)c2ccc(NC(=O)c3cccc(Cl)c3)cc2)s1 | 14 |
| CN(C)S(=O)(=O)c1cccc(NC(=O)COc2nc3ccccc3nc2N2CCOCC2)c1 | -1.88 |
| Cc1ccnc(NC(=O)c2ccco2)n1 | 10.5 |
| CCCCNC(=O)CS(=O)Cc1nc(-c2cccs2)oc1C (stereo not shown) | -2.68 |
| CCC(CC)NC(=O)Nc1ccc(F)c(Cl)c1 | 1.21 |
| N=c1c2c3c(sc2ncn1Nc1ccccc1)CCC3 | 1.05 |
| Clc1ccc(-c2n[nH]c3c2CCC3)cc1Cl | 12.9 |
| CCCn1c(=N)n(CC(O)c2ccc(C)cc2)c2ccccc21.Cl (stereo not shown) | -14.9 |
| CCOC(=O)c1c(NC(=O)C2C3C=CC(C3)C2(C)C(=O)O)sc2c1CCCC2 (stereo not shown) | 9.89 |
| CCCCc1ccc(NC2=NCC(=O)N2CCc2ccccc2)cc1.Cl | -2.78 |
| CN1CCN(c2ccc(/C=C3\C(=O)NC(=S)N(c4cccc(Br)c4)C3=O)o2)CC1 | 2.41 |
| NC(=O)c1nsc(C(=O)N(Cc2cccnc2)C(C(=O)NCc2ccc(F)cc2)c2ccc(O)cc2)c1N (stereo not shown) | 11.4 |
| Nc1c(N(Cc2ccccc2)C(=O)COc2ccc(F)cc2)c(=O)[nH]c(=O)n1Cc1ccccc1 | 2.76 |

| Structure (SMILES) | hERG current change (%, negative = inhibition) at 1uM [%] |
| --- | --- |
| O=C(C[n+]1cc(-c2ccccc2)n2c1CCC2)c1cccs1.[Br-] | 8.16 |
| C[C@H](NC(=O)c1[nH]cnc1C(=O)N[C@H](C)c1ccccc1)c1ccccc1 | 12.3 |
| COc1ccc(NC(=O)c2ccc(Cc3ccc(C)cc3)o2)cc1 | -16.2 |
| O=C(Cc1nnc(NC(=O)Nc2ccccc2)s1)NCc1ccccc1 | 14.6 |
| O=C(N/N=C/c1ccncc1)c1cccc(N/N=C/c2ccncc2)c1 | 1.51 |
| O=C1c2ccccc2C(Nc2ccc3c(c2)OCO3)N1Cc1ccc2c(c1)OCO2 (stereo not shown) | 6.62 |
| Cc1cccc(CCNC(=O)c2cc(S(=O)(=O)N3CCOCC3)cn2C)c1 | -3.05 |
| COc1cccc(NC(=O)CSc2ncc(S(=O)(=O)c3ccccc3)c(=O)[nH]2)c1 | 4.66 |
| CCOCCCNC(=O)C1CCN(S(=O)(=O)c2ccc(C)cc2)CC1 | 14.2 |
| CC(=O)N1CCc2cc(Br)cc(S(=O)(=O)N3CCN(C(=O)c4ccco4)CC3)c21 | 4.49 |
| O=C(Cc1ccccc1[N+](=O)[O-])OCc1cccc([N+](=O)[O-])c1 | 5.13 |
| COc1ccc(-n2cc(C(=O)c3ccc4ccccc4c3O)cn2)cc1 | 18 |
| COc1cc(C)ccc1S(=O)(=O)n1nc(C)cc1C | 16.6 |
| CC(C)(C)n1nc(-c2ccc(F)cc2)c2c(N)ncnc21 | -13.7 |
| COc1ccc(Cl)cc1NC(=O)c1cnc2n(c1=O)CCS2 | 0.629 |
| COc1cccc(CN2CCN(C(=O)c3cc(-c4ccncc4)nc4ccc(C)cc34)CC2)c1 | -21 |
| CN(C)S(=O)(=O)c1cccc(CSc2cccc[n+]2[O-])c1 | 9.87 |
| CSc1nnc(C)c(/C=C/Nc2ccc(C)cc2)n1 | 9.57 |
| O=C(/C=C/c1ccccc1)N/C(=C/c1ccccc1)C(=O)NCCO | -7.64 |
